# “And” between values parts separate entries of the source, which are not always exact repeats. Equal entries are not always repeated. The campaign covered roughly 110,000 compounds. About 230 (0.21%) showed an effect of 50% or more. The list shows a part of the results.
# Target: DPAP1 (Plasmodium falciparum, UniProt Q8IIJ9)
# Assay: primary screen, percent inhibition; read by cleavage of a fluorogenic dipeptide substrate; higher = more effect of the substance
# Parameters: species or system P. falciparum D10 trophozoite lysates; single well
# 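Further: 30 min substrate incubation versus DMSO and 10 µM JCP410 controls.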
# Sequence of DPAP1 (Q8IIJ9 whole entry, looked up): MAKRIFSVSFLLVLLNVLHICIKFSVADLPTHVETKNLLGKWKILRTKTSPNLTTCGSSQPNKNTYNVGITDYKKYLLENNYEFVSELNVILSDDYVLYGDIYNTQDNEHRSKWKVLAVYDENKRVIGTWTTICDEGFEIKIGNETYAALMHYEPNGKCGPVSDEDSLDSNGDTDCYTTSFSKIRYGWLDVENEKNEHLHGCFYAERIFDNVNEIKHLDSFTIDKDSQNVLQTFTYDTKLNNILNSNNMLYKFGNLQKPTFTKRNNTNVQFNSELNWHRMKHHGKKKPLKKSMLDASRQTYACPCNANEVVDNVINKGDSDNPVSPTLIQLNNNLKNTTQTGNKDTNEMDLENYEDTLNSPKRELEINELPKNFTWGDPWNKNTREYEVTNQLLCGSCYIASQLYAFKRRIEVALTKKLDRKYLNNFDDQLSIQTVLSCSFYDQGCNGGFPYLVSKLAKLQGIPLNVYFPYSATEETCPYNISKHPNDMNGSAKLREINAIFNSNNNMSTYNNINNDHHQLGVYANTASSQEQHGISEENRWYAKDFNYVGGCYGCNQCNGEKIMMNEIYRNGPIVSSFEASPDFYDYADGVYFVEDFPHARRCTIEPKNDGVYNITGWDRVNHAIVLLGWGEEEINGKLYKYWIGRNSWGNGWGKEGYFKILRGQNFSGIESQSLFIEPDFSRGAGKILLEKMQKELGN
row,Structure (SMILES),% Inhibition @ 10 uM
1,O=S(=O)(/N=C(/Nc1ccccn1)c1ccccc1)c1ccc(Cl)cc1,-4.13%
2,Cc1cc(OCC(=O)NCc2ccccc2)ccc1Br,2.44%
3,C=CCOC(=O)C1=C(C)N=C2CC(C)(C)CC(O)=C2C1c1cccc(OC)c1OC (centres unmarked),16.8%
4,CC1=NN(c2nc(-c3ccccc3)cs2)C(=O)/C1=C/c1ccc(C)s1,-4.51%
5,CCCO/C(O)=C1\C(C)=NC2=C(C(=O)CC(C)(C)C2)C1c1ccc(OC)c(OC)c1 (centres unmarked),-1.03%
6,O=C(Nc1cc(-c2cccc(Cl)c2)no1)c1cc2ccc3cccnc3c2[nH]1,2.94%
7,N#Cc1cn(CC(=O)NCCc2c[nH]c3ccccc23)c2ccccc12,1.31%
8,COC(=O)C1=C(N)Oc2cc(C)oc(=O)c2C1c1cccnc1 (centres unmarked),3.93%
9,COc1ccccc1NC(=O)Nc1ccc2ccccc2c1,-2.51%
10,Fc1ccc(-c2csc(Nc3cccc4ccccc34)n2)cc1,1.08%
11,COc1cc(C2C(C#N)=C(N)OC3=C2C(=O)CCC3)ccc1OCc1cccc(C(F)(F)F)c1 (centres unmarked),-2.78%
12,CC1CCC(NC(=O)C2CCN(c3cnccn3)CC2)CC1 (centres unmarked),4%
13,COc1ccc(/C=C2/C(=N)N3OC(C)=CC3=NC2=O)cc1,5.21%
14,Nc1ccc2oc3ccc(N)cc3c(=O)c2c1,2.51%
15,Oc1ccc(N2CCOCC2)nn1,0.708%
16,COc1cc(C(=O)Nc2ccc(S(=O)(=O)N3CCC(C)CC3)cc2)cc(OC)c1OC,-2.19%
17,CC(=O)c1ccc(N2CCN(C(=O)c3ccccc3)CC2)c(F)c1,-0.116%
18,COc1ccc(OC)c(CN2C(=O)c3ccccc3C2C(=O)NC2CCCCCC2)c1 (centres unmarked),2.93%
19,CC(C)c1ccc(C2c3c(oc4ccccc4c3=O)C(=O)N2c2nncs2)cc1 (centres unmarked),-5%
20,CC(C)C[C@H](NC(=O)c1ccc(-c2ccccc2)cc1)C(=O)NCC#N,14.7%
21,O=C(CN1C(=O)c2ccccc2S1(=O)=O)Nc1sc2c(c1C(=O)O)CCCC2,-1.82%
22,COc1ccc(NC(=O)c2sc3nc(C)cc(C)c3c2N)cc1,1.75%
23,COc1cccc(Oc2nc(C)nc3sc4c(c23)CCCC4)c1,3.82%
24,O=C1c2cc(S(=O)(=O)NCCO)ccc2-c2ccc(S(=O)(=O)NCCO)cc21,-2.41%
25,CC(C)Oc1ccc(C(=O)N(Cc2ccccc2)c2ccccn2)cc1,3.62%

row,Structure (SMILES),% Inhibition @ 10 uM
1,CCc1nnc2sc(NC(=O)c3ccc(OC)c(OC)c3)nn12,9.28%
2,Cc1cccc(/N=C/c2c(C)nn(-c3cccc(C)c3)c2O)c1,2.51%
3,CCSC1=C(C#N)C(c2ccccc2)C(c2ccccc2)CN1 (centres unmarked),2.01%
4,COc1ccc(OCC(=O)Nc2cc(OC)ccc2OC)cc1,-5.27%
5,O=C(CN1CCCCC1)N1CCn2c3c(c4cc(C5CCCCC5)ccc42)CCCC31 (centres unmarked),-1.64%
6,CC1CC(C)CN(C(=O)CCNS(=O)(=O)c2cc(Br)cnc2N)C1 (centres unmarked),0.229%
7,Cc1cccc(NC(=O)c2cc3c(Cl)nc4ccccc4c3s2)n1,12.3%
8,COc1cccc(C2=CC(c3ccccc3Cl)n3nnnc3N2)c1 (centres unmarked),-7.08%
9,OCCN1CCN(Cc2ccc(-c3ccccc3)cc2)CC1,0.526%
10,CC(=O)N(C)c1ccc(NC(=O)COc2ccc(Cl)cc2C)cc1,1.62%
11,CC(=O)N1CCC(NCc2ccc3c(c2)OCO3)CC1,-0.292%
12,Cc1nc2ccn(Cc3cccnc3)c(=O)c2cc1C(=O)N1CCN(c2ncccn2)CC1,0.212%
13,O=C(CN1C2=NCCCN2c2ccccc21)c1ccccc1,2.64% and -4.67%
14,CCC(C)N(CCNC(=O)C1CCCN(c2nc(-c3ccc(OC)cc3)no2)C1)Cc1ccco1 (centres unmarked),-6.56%
15,Cc1cccc(C(=O)Nc2ccc(S(=O)(=O)N3CCCCCC3)cc2)c1,-0.992%
16,COc1ccc2[nH]cc(CCNC(=O)C(C)c3ccc(CC(C)C)cc3)c2c1 (centres unmarked),-1.76%
17,Cc1ccc(-c2csc3ncnc(-n4nc(C)cc4N)c23)cc1,-7.14%
18,COc1ccc(OC)c(NC(=O)CN(c2cccc(C(F)(F)F)c2)S(C)(=O)=O)c1,-9.65%
19,CSc1ccc(C(=O)N[C@@H](CC2CCCCC2)C(=O)NCC#N)s1,-3.49%
20,OCCN(CCO)Cc1ccc(F)c(F)c1,-5.59%
21,CC(C)(C)c1ccc(S(=O)(=O)N2CCN(c3ccccc3)CC2)cc1,3.24%
22,Cc1ccc(-c2nc3cc(NC(=O)c4ccc5c(c4)OCCO5)ccc3o2)cc1,-0.115%
23,Clc1ccc(CSc2nc3ccncc3[nH]2)cc1,0.0882%
24,O=C(c1ccco1)n1nc(-c2ccco2)nc1SCc1ccccc1,-2.75%
25,O=c1/c(=C/c2ccc(-c3ccc(Br)cc3)o2)sc2nc3ccccc3n12,-3.63%

row,Structure (SMILES),% Inhibition @ 10 uM
1,Cc1ccccc1N1C(=O)/C(=C\c2ccc(N(C)C)cc2)C(=O)NC1=S,4.15%
2,Cc1ccc(-n2c(C)cc(C(=O)CN3CCCCC3)c2C)cc1,15.9%
3,COc1ccc(C2CC(=O)C(/C=N/c3ccc(OC)c(OC)c3)=C(O)C2)cc1 (centres unmarked),-4.75%
4,O=S(=O)(NCc1ccc2c(c1)OCO2)c1ccc(Br)cc1,-14.4%
5,Cc1cc2c(c(=O)n1Cc1cccnc1)C(c1cccnc1)C(C#N)=C(N)O2 (centres unmarked),-3.39%
6,O=C(CCn1cnc2onc(-c3ccc(F)cc3)c2c1=O)NCCc1ccc(Cl)cc1,-4.97%
7,CCN(CC)CCNC(=O)C1c2cc(OC)c(OC)cc2C(=O)N2CCc3ccccc3C12 (centres unmarked),-1.54%
8,CCCN1CCC(N2CCCC2)CC1,2.94%
9,Cc1cc(C)c(C)c(S(=O)(=O)Nc2ccc(C(=O)N3CCCC3)cc2)c1C,-14.4%
10,Cc1ccc(NC(=O)C(c2ccncc2)N(C)C(=O)CNC(=O)c2ccccc2)cc1 (centres unmarked),-3.26%
11,Cc1cccc(C(=O)N2CCCN(C(=O)c3cccc(C)c3)CC2)c1,-10.6%
12,NC(=O)c1c(NC(=O)c2ccc(Cl)c([N+](=O)[O-])c2)sc2c1CCCC2,-5.28%
13,CNc1c(NC(=O)Cc2ccc(OC)c(OC)c2)c(=O)oc2ccccc12,0.128%
14,COc1ccccc1-n1c(O)cc(=O)nc1SCc1ccccc1,0.343%
15,Clc1ccc(OCCSc2n[nH]c3nc4ccccc4n23)cc1,-5.38%
16,CC(O)(C#Cc1ccccc1)c1ccc(N2CCCCC2)c(F)c1 (centres unmarked),-1.5%
17,Cc1cc(C)cc(NC(=O)c2ccncc2)c1,4.22%
18,O=C(CCc1ccccc1)Nc1scc(-c2ccccc2)c1C(=O)O,-3.63%
19,O=C1Cc2ccccc2C(c2c(Cl)cccc2Cl)N1 (centres unmarked),-2.48%
20,NC(=O)c1c(NC(=O)Cc2ccc(Cl)cc2)sc2c1CCCCC2,0.316%
21,CC(=O)NC(=O)/C(=C(/C)Nc1ccccc1)c1ccccc1,-1.88%
22,NC(=O)CSc1nc2c(c(=O)n1CCc1ccccc1)SCC2,-4.32%
23,Cc1nn(-c2nc3ccccc3[nH]2)c(O)c1C1OC(=O)c2ccccc21 (centres unmarked),-3.5%
24,Cc1sc(NC(=O)c2ccccc2C(=O)O)c(C(N)=O)c1C,-2.85%
25,CCOC(=O)c1c(NC(=O)c2cc3ccccc3o2)sc2c1CCCC2,1.25%

row,Structure (SMILES),% Inhibition @ 10 uM
1,CCCCN(CCNC(=O)c1nn(C)c2c1CSc1ccccc1-2)Cc1ccco1,0.00665%
2,Cn1c2ccccc2c2nnc(SCC(=O)Nc3ccc(Cl)cn3)nc21,14.1%
3,CCCc1nn(C)c(C(=O)Nc2ccccc2C)c1Cl,-1.84%
4,COc1ccc(Nc2nc(Cl)nc(NCc3cccnc3)n2)c(OC)c1,0.823%
5,Cc1cc(C)n(-c2ccc(NC(=O)Cn3nc(C(F)(F)F)cc3C3CC3)cc2)n1,-1.36%
6,CCOc1cc(C(=O)Nc2cc(C)c(C)cc2O)cc(OCC)c1OCC,-6.77%
7,CCOc1ccccc1OCc1nn2c(-c3cccc(Cl)c3)nnc2s1,2.89%
8,CCC(=O)N1C(=O)CCN(C(C)=O)c2ccccc21,1.43%
9,CCOc1cc(/C=C2/NC(=O)N(CC(=O)Nc3cccc(C)c3)C2=O)cc(Cl)c1O,2.44%
10,CCOC(=O)c1sc2ncc3cc4ccccc4nc3c2c1N,-5.63%
11,CCOc1ccc2oc(=O)cc(CN3CCN(C(=O)c4ccc(OC)cc4OC)CC3)c2c1,-2.84%
12,Cc1cc(C)nc(SCC(=O)Nc2c(C)n[nH]c2C)n1,-4.78%
13,O=C(O)CC1c2ccccc2Oc2ccccc21,3.24%
14,Cc1ccc(N(CC(=O)Nc2ccccc2-c2ccccc2)S(C)(=O)=O)cc1,-6.65%
15,COc1cc(C2C3=C(O)CC(C)(C)CC3=Nc3ccccc3N2C(=O)C(C)C)cc(OC)c1OC (centres unmarked),2.76%
16,CS(=O)(=O)N1CCCC(C(=O)N2CCC3(CC2)OCCO3)C1 (centres unmarked),3.79%
17,CCN(CC)c1c(S(=O)(=O)c2ccc(C)cc2)cnc2ccc(OC)cc12,-5.54%
18,CCOc1cc(C2C(C(=O)OC)=CN(C(C)C)C=C2C(=O)OC)cc(Br)c1O,0.219%
19,CCCCN1CN(CCC)CNC1=S,-3.74%
20,COc1ccc(S(=O)(=O)Nc2ccc(C)c(Cl)c2)cc1,2.22%
21,Cc1ccc(S(=O)(=O)N(CC(=O)Nc2ccc3c(c2)OCCO3)Cc2ccc(Cl)cc2)cc1,-5.27%
22,COc1cccc(-c2nc(CS(=O)(=O)CC(=O)NC(C)C34CC5CC(CC(C5)C3)C4)c(C)o2)c1 (centres unmarked),-3.7%
23,CN1CCN(CC(=O)N2CCn3c4c(c5cc(C6CCCCC6)ccc53)CCCC42)CC1 (centres unmarked),-1.41%
